Results from article PMC4336329 (PLoS ONE, 2015).
About 2,200 (0.71%) of roughly 310,000 compounds showed an effect of 50% or more. Effects have a minus sign here. This is one part of the list.

molecular target: human ether-à-go-go-related gene (hERG) potassium channel (human, UniProt Q12809); assay: primary screen, population patch clamp on CHO cells stably expressing hERG
Sequence (Q12809 whole entry, looked up): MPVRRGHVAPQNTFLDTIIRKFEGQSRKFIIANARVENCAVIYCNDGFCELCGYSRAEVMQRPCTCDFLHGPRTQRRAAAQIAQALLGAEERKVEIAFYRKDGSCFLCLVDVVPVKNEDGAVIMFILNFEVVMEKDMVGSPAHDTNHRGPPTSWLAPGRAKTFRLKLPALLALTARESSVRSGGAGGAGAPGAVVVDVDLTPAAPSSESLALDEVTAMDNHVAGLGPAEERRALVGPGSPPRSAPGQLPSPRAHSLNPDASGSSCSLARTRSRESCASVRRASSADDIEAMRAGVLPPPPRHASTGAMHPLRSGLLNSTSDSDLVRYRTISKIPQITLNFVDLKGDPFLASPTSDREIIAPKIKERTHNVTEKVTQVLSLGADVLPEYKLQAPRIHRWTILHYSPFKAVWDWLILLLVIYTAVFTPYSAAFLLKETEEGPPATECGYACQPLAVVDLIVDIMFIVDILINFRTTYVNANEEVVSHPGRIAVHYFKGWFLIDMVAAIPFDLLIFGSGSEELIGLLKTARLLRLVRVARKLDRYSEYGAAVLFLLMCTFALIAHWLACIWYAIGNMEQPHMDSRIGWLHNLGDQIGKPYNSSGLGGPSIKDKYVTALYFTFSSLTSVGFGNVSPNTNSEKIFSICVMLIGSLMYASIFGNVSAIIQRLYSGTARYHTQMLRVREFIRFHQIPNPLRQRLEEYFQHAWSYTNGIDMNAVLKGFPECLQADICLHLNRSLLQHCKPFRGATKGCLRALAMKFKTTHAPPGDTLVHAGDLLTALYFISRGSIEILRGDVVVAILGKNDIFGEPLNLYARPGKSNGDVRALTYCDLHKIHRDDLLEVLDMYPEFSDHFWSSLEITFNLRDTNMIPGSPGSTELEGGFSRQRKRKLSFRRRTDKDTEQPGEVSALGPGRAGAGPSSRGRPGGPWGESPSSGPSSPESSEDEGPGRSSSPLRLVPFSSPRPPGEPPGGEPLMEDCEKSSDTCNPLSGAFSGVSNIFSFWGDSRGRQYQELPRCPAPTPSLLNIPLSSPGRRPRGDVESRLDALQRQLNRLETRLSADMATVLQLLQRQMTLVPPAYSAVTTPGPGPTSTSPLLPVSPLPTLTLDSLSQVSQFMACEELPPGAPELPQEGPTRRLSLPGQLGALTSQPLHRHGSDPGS

| Structure (SMILES) | hERG current change (%, negative = inhibition) at 1uM |
| --- | --- |
| NNC(=O)c1ccc(CSc2cccc3cccnc23)cc1 | 9.92% |
| Cc1cccc(N2CC(C(=O)Nc3nnc(SCC(=O)Nc4cc(C)on4)s3)CC2=O)c1 (centres unmarked) | 16.8% |
| O=C(NNC(=O)c1ccccc1C(=O)O)c1cc2ccccc2o1 | 12.5% |
| CC(=O)OCC1CCCC2=C(C)C(=O)CCC21COC(C)=O (centres unmarked) | -9.93% |
| COc1ccc(C(=S)N2CCCCCC2)cc1 | 4.81% |
| O=C(O)C1CC(O)CN1C(=O)c1ccco1 (centres unmarked) | 15.1% |
| O=C(Nc1nnc(C2=COCCO2)o1)C1CCCCC1 | 3.65% |
| O=C(NC1CCN(c2ncccn2)CC1)c1ccccc1Cl | 15.2% |
| COc1cccc(-c2cc(C(=O)O)[nH]n2)c1 | 6.41% |
| CCOC(=O)N1CCC(NC(=O)C2CCN(S(=O)(=O)N3CCCC3)CC2)CC1 | 6.83% |
| N#Cc1ccc(OCc2noc(-c3ccsc3)n2)cc1 | 15% |
| COc1ccc(N/C=C/C(=O)c2sc(-c3ccccc3)nc2C)cc1 | 17.2% |
| CCCNC(=O)Cc1cc(=O)[nH]c(=O)[nH]1 | 16.9% |
| CCCCCCn1c(CN2CCN(CCO)CC2)nc2c1c(=O)n(C)c(=O)n2C | -4.05% |
| O=C(CN1CCN(C(c2ccccc2)c2ccccc2)CC1)Nc1ccc(N2CCOCC2)cc1 | 10.9% |
| Cc1ccnc(NC(=O)CCc2c(C)nc3ncnn3c2C)c1 | 1.74% |
| Cc1ccc(S(=O)(=O)NCc2ccc(C(=O)N3CCN(Cc4ccccc4)CC3)cc2)cc1 | 3.2% |
| C=CCN1C(=O)C(CC(=O)Nc2ccc(OCCC)cc2)N(CCCN2CCN(Cc3ccccc3)CC2)C1=S (centres unmarked) | -3.08% |
| Cc1ccccc1-n1c(=O)/c(=C\c2ccco2)s/c1=C(/C#N)C(=O)Nc1ccccc1 | 3.73% |
| CC(C)(C)C(=O)N1CCC(O)(CS(=O)(=O)Cc2ccccc2)CC1 | 3.89% |
| COC(=O)C1CCN(C(c2ccc(OC)c(OC)c2)c2sc3nc(C)nn3c2O)CC1 (centres unmarked) | 1.78% |
| Cc1cccc(NC(=O)/C(=C\c2cccs2)NC(=O)c2ccccc2)c1 | -65.1% |

| Structure (SMILES) | hERG current change (%, negative = inhibition) at 1uM |
| --- | --- |
| COc1ccc(-c2nnc(SCC(=O)Nc3ncc(C)s3)n2-c2ccccc2)cc1OC | 9.39% |
| O=C(O)Cc1ccc2oc(-c3cccnc3)nc2c1 | 13.8% |
| COCCN(Cc1cc2cc(C)c(C)cc2nc1Cl)C(=O)N1CCOCC1 | 4.03% |
| C=CCNC(=O)COC(=O)c1cc(S(=O)(=O)N2CCOCC2)ccc1N1CCCCC1 | -8.92% |
| CC1CCCN(S(=O)(=O)c2ccc(NC(=O)CCN3C(=O)c4ccccc4C3=O)cc2)C1 (centres unmarked) | 5% |
| Cc1oc2cc3oc(=O)c4c(c3cc2c1C)CCC4 | -11.3% |
| Fc1ccc(F)c(NC2=NCCCCC2)c1 | 18.8% |
| O=C(Nc1ccccc1Cl)NC1(C(=O)N2CCC(O)CC2)CCCCC1 | 21.1% |
| Cc1cc(C)n2nc(C(=O)Nc3cccc(S(=O)(=O)N4CCCC4)c3)nc2n1 | 3.86% |
| CCCCCC(O)(CCN1CCCCC1)c1ccc(OCC)cc1.Cl (centres unmarked) | -82% |
| CC(/C=C(\NC(=O)c1ccccc1)C(=O)N=Nc1c(O)[nH]c2ccc(C)cc12)=C\c1ccccc1 | -1.93% |
| Cc1ccc(Nc2nc(C(=O)N3CCC(C(=O)NCc4ccccc4)CC3)cs2)cc1 | 6.41% |
| CC(C)n1cc(CN2CCC(Oc3ccc(C(=O)N4CCCCC4)cc3)CC2)cn1 | -18.9% |
| Cc1cccc2cc(/C=N/NC(=O)c3ccccc3O)c(Cl)nc12 | 8.13% |
| Cc1ccc2occ(/C=N/NC(=O)c3ccccc3Br)c(=O)c2c1 | 15.3% |
| COc1ccc(C(=O)NNC(=O)C23CC4CC(CC(C4)C2)C3)c(OC)c1 | 10.9% |
| O=[N+]([O-])c1cc([N+](=O)[O-])c(Oc2ccc(Cl)c3cccnc23)cc1NN1CCCCC1 | 9.13% |
| CCC(=O)Nc1ccc(C(=O)CSc2nnc(-c3ccccc3F)n2C2CC2)cc1 | 8.56% |
| CSc1nc(=S)n(-c2ccc([N+](=O)[O-])cc2)c(C)c1C(C)=O | -10.5% |
| COc1ccc(C(=O)NCC(=O)OCCCOC(=O)CNC(=O)c2ccc(OC)c(OC)c2)cc1OC | 5.65% |
| O=C(Nc1ccc(-n2cnnn2)cc1)c1cccc(S(=O)(=O)N2CCCC2)c1 | 7.79% |
| CCN(CC)c1ccc(NC(=O)CC2Oc3ccccc3NC2=O)c(C)c1 (centres unmarked) | -3.13% |

| Structure (SMILES) | hERG current change (%, negative = inhibition) at 1uM |
| --- | --- |
| NS(=O)(=O)c1ccc(CCNC(=O)COC(=O)c2nc(Cl)ccc2Cl)cc1 | 12.4% |
| Cc1ccc(S(=O)(=O)N2CCN(C(=O)C(C)Cn3nc(C)c(C)c3C)CC2)cc1C (centres unmarked) | -5.49% |
| COc1ccc(N2CCN(C(=S)NCc3ccccc3)CC2)cc1 | 11.9% |
| O=C(O)c1ccc(N/N=C/c2cn(Cc3ccccc3F)c3ccccc23)cc1 | -0.57% |
| O=C(COC(=O)c1ccc(Cl)c(S(=O)(=O)N2CCCC2)c1)NC1CCCC1 | 0.873% |
| N#C/C(=C\c1cccc([N+](=O)[O-])c1)c1nnc2n1CCCCC2 | 4.95% |
| Cc1ccc(C)c(S(=O)(=O)N2CCN(C(=O)Cc3ccsc3)CC2)c1 | 8.09% |
| O=C(C1CC(=O)N(c2ccccc2)C1)N1CCN(c2ccccc2F)CC1 (centres unmarked) | 14.8% |
| COc1ccccc1C(c1nnnn1Cc1ccccc1)N1CCN(c2nc3ccccc3s2)CC1.Cl (centres unmarked) | 16.6% |
| O=C1/C(=C\c2cccs2)Sc2ccc3ccccc3c21 | 12.2% |
| Cn1c(SCC(=O)NNC(=O)Nc2ccccc2)nnc1-c1ccccc1 | 8.01% |
| COc1ccc(/C=C2\SC(=S)N(CCCC(=O)N3CCOCC3)C2=O)cc1 | -3.35% |
| CSCCC(NC(=O)c1ccccc1)C(=O)NCCc1ccc2c(c1)OCCO2 (centres unmarked) | -9.01% |
| NS(=O)(=O)c1ccc(NC(=O)COC(=O)CCNC(=O)NC23CC4CC(CC(C4)C2)C3)cc1 | 2.89% |
| COc1ccc(S(=O)(=O)N2CCC(C(=O)N[C@@H](C)C(=O)NCc3cccc(OC)c3)CC2)cc1 | 24.8% |
| Fc1ccccc1CSc1nnnn1-c1ccc2c(c1)OCO2 | -12.5% |
| Nc1ccccc1Nc1cc(-c2ccccc2)nn1-c1ccccc1 | 1.08% |
| O=C(Nc1ccccc1C(=O)Nc1ccc2c(c1)OCO2)c1ccco1 | 5.66% |
| CSc1ccc(Cl)c(C(=O)NCCCn2ccnc2)c1 | 9.71% |
| Cc1cccc(-n2c(N)cc(=O)[nH]c2=S)c1 | 0.389% |
| COc1ccc(OC)c(N2CC(O)(c3cccs3)[N+]3=C2SCCC3)c1.[Br-] (centres unmarked) | -3% |
| Cc1csc(NC(=O)C2COc3ccccc3O2)n1 (centres unmarked) | -13.5% |

| Structure (SMILES) | hERG current change (%, negative = inhibition) at 1uM |
| --- | --- |
| Cc1coc2c1c(C)cc1oc(=O)c(CC(=O)N[C@@H](CC(C)C)C(=O)O)c(C)c12 | -1.7% |
| O=C(c1nc2ccc(Cl)cn2c1CN1CCC(CO)CC1)N1CCc2ccccc2C1 | -0.374% |
| Cc1cnc(C(=O)Nc2ccc(S(=O)(=O)N(C(C)C)C(C)C)cc2)cn1 | 12.5% |
| COc1ccc(C2=C3C(=O)OCC3Cc3ncn(Cc4ccccc4)c32)cc1 (centres unmarked) | 8.39% |
| O=C(NNC(=O)c1ccc(Cl)cc1Cl)c1csc(-c2cccnc2)n1 | 1.02% |
| CC1CCN(S(=O)(=O)c2cc([N+](=O)[O-])ccc2Cl)CC1 | 6.55% |
| COc1ccccc1NC(=O)c1nnn(CC(=O)Nc2cc(C)cc(C)c2)c1N | 16.2% |
| CCCNC(=O)c1cc(-c2ccc(Br)cc2)on1 | 9.53% |
| Cc1ccc(CNC(=O)CCCc2nc3ccccc3s2)cc1 | 8.65% |
| CC1(C2CC2)NC(=O)N(CC(=O)Nc2ccc(Cl)c([N+](=O)[O-])c2)C1=O (centres unmarked) | 4.43% |
| O=C(c1cc(COc2ccc(F)cc2Cl)on1)N(Cc1ccncc1)CC1CCCO1 (centres unmarked) | -15.8% |
| COc1ccccc1NC(=O)C(C)OC(=O)Cc1n[nH]c(=O)c2ccccc12 (centres unmarked) | 14.6% |
| COCCNC(=O)COC(=O)c1ccc(S(=O)(=O)N2CCOCC2)cc1 | 12.5% |
| Cc1ccccc1C(=O)Nc1ccccc1C(=O)NCc1ccccc1 | 0.985% |
| COc1ccc(OC)c(NS(=O)(=O)c2ccc3c(c2)C(C)(C)C(=O)N3C)c1 | 7.77% |
| Cc1cc(C(=O)N2CCN(c3ncccn3)CC2)c2cc(F)ccc2n1 | 15.4% |
| CCOC(=O)N1CCN(C(=O)COC(=O)CNC(=O)c2ccc(C)cc2)CC1 | -3.09% |
| COC(=O)c1sc2nc[nH]c(=O)c2c1C | 13% |
| CCOc1ccccc1NS(=O)(=O)c1cc2c3c(c1)CC(=O)N3CCC2 | 11.6% |
| CC(C)(C)c1ccc(C(=O)N/C(N)=N/c2nc3ccccc3o2)cc1 | -4.19% |
